Data from the supplement of paper PMC11417369.
± gives the standard deviation of the averaged measurements. Some of the results follow.

The sequences below were run on PfAP2-G AP2 domain (GST-tagged) (assay: gcPBM binding intensity (ln(normalized median fluorescence intensity)); higher = stronger DNA binding).
Outline: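 Using an Agilent 4 × 180k array, primer-extended double-stranded 36-bp intergenic genomic probes and negative controls were exposed for 1 h to GST-fused P. falciparum DNA-binding domains expressed in E. coli. Binding was carried out in 1× PBS with 1% milk, 0.2 mg/ml BSA, 0.5% salmon testes DNA and 0.03% Triton X-100, and protein was detected with Alexa488 anti-GST antibody and a 488 nm scan. Binding intensity is the highest Masliner-normalised natural-log median intensity across replicate spots of either probe orientation.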

Sequence	gcPBM binding intensity (ln)
CTTATCAAAAAAAAAGCATGCCACAGGCAAAAGGTA [TGCATGCA_site574]	9.8 ± 0.2
ATCCTTTATTTTTTTTGTACATAAAAATAACTCGAG [XGTACX_site3885]	11.1 ± 0.62
AAATTACAAATACAAACACACAAATGTTTTTCATTC [CACACA_site3552]	9.63 ± 0.18
TTTTTCTATAAAAAATGTACATATTTTATGAAGGAA [XGTACX_site821]	11.2 ± 0.71
TTAAAAAACCTTAGATGTACAGTTATATATAAAATA [XGTACX_site6688]	11.4 ± 0.98
ATATAAAAATGTGTATGTACACACTTTATTTTTAAT [XGTACX_site5272]	11.4 ± 0.74
AGGTATCAAAAATATGCATGCAATATTTTATGTAAT [TGCATGCA_site1055]	9.81 ± 0.2
TGAACACACGAGCACACACACACATCTATATTTATA [CACACA_site6607]	10.3 ± 0.2
TGGAATAATACGCGTACACACATATATATATTAATA [CACACA_site131]	11.8 ± 0.97
AAAAATAAATTTAGTTGTACTTTATTATTTTAAATA [XGTACX_site3067]	11.2 ± 0.76
AATCAATAAATAAAAACATGCATATATATATATATA [TGCATGCA_site438]	9.95 ± 0.42
TTTTTTTTTTTTTTTTGTACGTATCAAAAAATTTGT [XGTACX_site1023]	11.3 ± 1.1
ATTTTTTTACTGTAACCATATTTTTCCCTTTTATTC [CACACA_negctrl_site1143]	10.21 ± 0.078
ATAATATATATATATAGTACATATATATAATATTCT [XGTACX_site2445]	10.7 ± 0.71
CATTAATAAAAAAAAAGTACAAAAAATATATATATT [XGTACX_site2091]	11.4 ± 0.78
AAAATAAAAATATTCACACATACAAAAATTATACAA [CACACA_site5136]	9.88 ± 0.042
ATAGACAGCGCACAAACACACAAACACCCACCCACA [CACACA_site8043]	10.5 ± 0.28
AGTGATACTAATTTTTGTACGCATAAAAGAATATTC [XGTACX_site6055]	11.5 ± 0.88
TATATTGATGATGATAGTACGTATGATTAGAAAAAA [XGTACX_site8989]	11 ± 0.61
AAGAAAAACTTTACGTGTACCAAACATCCTGCCAAC [XGTACX_site598]	11.1 ± 0.41
AAAAAAAAAAAAATACGTACATACATACCTACATAT [XGTACX_site233]	11.5 ± 0.93
TATATATATATGTGTACACAATTTATCTGTATTTAT [CACACA_site5945]	11.8 ± 0.93
ATATTTCTGTCAAGCACACATAATATTAAAATATGT [CACACA_site4330]	10.2 ± 0.28

Sequence	gcPBM binding intensity (ln)
ATTTAGAAAAATAAAACACACATATAGATGTAAATA [CACACA_site7853]	9.87 ± 0.099
TTAATATGATATATATATATATATATATATATATAT [CACACA_negctrl_site683]	9.81 ± 0.51
GTAAAAATTTTAAATACATGCAAGCGATTAATATGA [TGCATGCA_site80]	9.87 ± 0.17
TCATATTATAATGTGAGTACATATAATAAATAAGTT [XGTACX_site2470]	11.3 ± 0.95
ATGTTTGTCTATAGCTGTACCTATTTATAAAACGTA [XGTACX_site7157]	11.2 ± 0.85
TTAAATAATATTAAATGTACATATTATTATGATATA [XGTACX_site6189]	11.1 ± 0.64
TATATATTTAACAATCGTACATATTTACAAATATAA [XGTACX_site2131]	11 ± 0.76
TTATAACAACTGGAATGATTAACAATAAATATTAAA [CACACA_negctrl_site1723]	9.87 ± 0.13
GTATATATGTATATATGTACATATATACATTTTGTT [XGTACX_site7320]	11.2 ± 0.64
CGTTAAAGGGAATGTATACACACGTTTCTCTATGTT [CACACA_site1198]	10.2 ± 0.16
TATTTTTTTTTCTTTTTATATATAATAATCTTCATT [GTGCAC_negctrl_site80]	9.73 ± 0.16
AGGAGACTTAAAAAAAGTACAAAAAAAAAAAAAAGC [XGTACX_site1576]	11.4 ± 0.93
ACAGAAAAAAAACACACACACATAATATACATACAT [CACACA_site1932]	10
TATACATATATAAATGCATGTTGATATTAATAGTTA [TGCATGCA_site639]	9.615 ± 0.049
AATTTCATAAATATAACTGAGAATAAATAAACAAAG [GTGCAC_negctrl_site146]	9.935 ± 0.078
AAAAATAAAATAAAGAAGGAAAATAAAAAAATAAGG [CACACA_negctrl_site1811]	10.01 ± 0.035
AGGAGGTCAGTTCACAGTACCCAGGAAATCTACGGA [XGTACX_site2552]	11.1 ± 0.8
AAACATAAGAGACACACACACATATATAAATAAATA [CACACA_site7674]	10.1 ± 0.28
CCTGTAAATAAATATAAATACATATTTCTAATATAT [GTGCAC_negctrl_site21]	9.53 ± 0.32
ACCTCATAATATTTAACACACAAAATTAAATGTATG [CACACA_site6898]	10.09 ± 0.028
TTTCAAAAAAATAATGTGCACATTAGAAAATAAATA [GTGCAC_site9416]	10.3 ± 0.33
TTATGTTGTAAATGCACACATACATAAACTCAGTTT [CACACA_site5639]	10.1 ± 0.13
TAAATATTTTTAGATGCATGCAATAATTACCCAAAG [TGCATGCA_site636]	10.2 ± 0.3

Sequence	gcPBM binding intensity (ln)
TTATTATTATTACTAGTGCATTAATTATATATGTAA	9.965 ± 0.064
TTTTTTTTTTCTGAAAGTACTAATTTCCTGGAGGAA [XGTACX_site759]	10.9 ± 0.83
ACATATATTTAAAAATGTACTTACATATATTTTTTA [XGTACX_site6050]	11 ± 0.69
TTTTATACATATTTTACACACTAAAATATACATATA [CACACA_site324]	10.09 ± 0.057
GAAGTATTTATTTATGCATGCAAATATACAAAAAAA [TGCATGCA_site975]	10 ± 0.23
ATATGTAGAAGTAATGCACACATATGTATATATATA [CACACA_site8796]	9.935 ± 0.007
TTAAAATATAATATTCGTACTTATTCAAAAGAAAAA [XGTACX_site2122]	10.8 ± 0.75
TTTCACTTTTTCCAAAGTACATATATAAAAATTAAT [XGTACX_site6947]	10.9 ± 0.78
TTTTAATAAATATACACACACAAAAAAAAAAAAAAA [CACACA_site3971]	9.93 ± 0.51
AGATTATAAAATTCTACACACATATATACATATATA [CACACA_site3485]	9.835 ± 0.078
GACCAATTCAAATATGCACACAAATTTGAAAACGAT [CACACA_site9202]	10.3 ± 0.23
ATATAAAAAAAAAAAAGTACACATAAACAAATGCAT [XGTACX_site4241]	11.7 ± 1
AATATATAGAAACACACACACAAAAAAAAAAAAAAA [CACACA_site1326]	9.95 ± 0.44
AATAAAAAGACATTCACACATATATATTATTTATAT [CACACA_site5936]	9.7 ± 0.29
AATTAATAACAAAATAAACACACATATATAAATACA [CACACA_site8456]	9.97 ± 0.057
ATAATGTAAAAGTAAACACACACATATATATATACA [CACACA_site8793]	9.93 ± 0.071
GTCTTAAAAATTAAAACACACGTTCACTTTCATATT [CACACA_site5803]	10.05 ± 0.021
TATATATATATATAATGTACATATATATAATATACA [XGTACX_site1552]	10.9 ± 0.6
ATTTCTACTAAAAATACACACGATGATACAACGAAG [CACACA_site1755]	10.18 ± 0.099
AAAGAATTTGCATATACACACAAAAAGATATATACA [CACACA_site6318]	10.1 ± 0.14
CTAATGATCATATATACACACACACTAATAAAAAAA [CACACA_site9329]	10.1 ± 0.16
TATATTTAGATATATACACACATTAGCATTTTCATA [CACACA_site6902]	9.68 ± 0.18
CATAATACAGATAACACACACAATTATACATAAAAT [CACACA_site5742]	10.04 ± 0.085

Sequence	gcPBM binding intensity (ln)
GTATATATTTTTATTTAATAATTTGTTTATTTATTC [CACACA_negctrl_site647]	9.75 ± 0.042
CATACATATACATACAGTACATATTTTTTGTCAATT [XGTACX_site7357]	10.9 ± 0.42
TTATATGGCTCCATTTGTACGCATCCATGTTTTTAT [XGTACX_site6590]	11.5 ± 1
AGGAGGTCAGTTCACAGTACCCAGAAACTCTACGAG [XGTACX_site2006]	11.1 ± 0.73
TCTTTTTTTTCTTTTTTTTTATTTAAATATCAAGTA [CACACA_negctrl_site1354]	9.66 ± 0.23
AAAAAAAAAAAAAAAGCACACATCATATTATAATTC [CACACA_site3355]	10.2 ± 0.18
AAAAAAACATAACAAAATGAAACAAAACAAAAAGAA [GTGCAC_negctrl_site577]	9.88 ± 0.014
AGTTATTAAAAATGTGCATGCAATGGTTTCTCTTAA [TGCATGCA_site634]	9.965 ± 0.092
GTATGTATATATATATGTACATACTGTTTATCGTTA [XGTACX_site6168]	11.1 ± 0.47
ATATATTTCAAAGGGGTGCAGGCATATTTAAGCAAA	10.3 ± 0.4
TCTTTTTAATTTATATGTACTTATATTAATTATAAG [XGTACX_site7524]	11.4 ± 0.97
TTTCTTAAAATGTTATGTACATATTTCGTTTCAAAG [XGTACX_site6102]	11.3 ± 0.84
GTATTATAGTATAATACACACCCAAATATTAAAAAG [CACACA_site7404]	10.315 ± 0.007
TGAGCTTCAACAATATGTACATAAAATATATTACAT [XGTACX_site4763]	11.2 ± 0.54
TTAATAAAAGCCCATGCACACCTTAGAAAGTTTTAT [CACACA_site8003]	10.1 ± 0.18
TTAGGAAAACAAAAATGTACGCATATATATTATTGA [XGTACX_site8288]	11.5 ± 1
TTAAAAATAATATATTGTACACATACTTATTTTAAT [XGTACX_site1348]	11.4 ± 0.88
CGTTATATATGTATTACATGCAATATATGTACGTAA [TGCATGCA_site274]	11.3 ± 1
TAAATAATATCCCTTTGTACGTATTTTTTTTTATTA [XGTACX_site7303]	11.5 ± 0.78
GAAATAAGTTAAAATAGTACGTAGTGTTCCTTAAGT [XGTACX_site6557]	11 ± 0.46
